Data reported in the supplement of paper PMC3334620.
Over roughly 33,000 sequences, “E-score (-0.5 to 0.5)” has its median near -0.035; the highest 2% begin near 0.34. The list shows a part of the results.

These sequences were tested against T1, Mot3 (UniProt P54785) (assay: PBM E-score (8-mer binding enrichment) (E-score (-0.5 to 0.5)); higher = stronger / more preferred TF binding; most listed sequences are background and not binding sites). Details: protein concentration: 200 nM; construct: GST-full length.
T1 sequence: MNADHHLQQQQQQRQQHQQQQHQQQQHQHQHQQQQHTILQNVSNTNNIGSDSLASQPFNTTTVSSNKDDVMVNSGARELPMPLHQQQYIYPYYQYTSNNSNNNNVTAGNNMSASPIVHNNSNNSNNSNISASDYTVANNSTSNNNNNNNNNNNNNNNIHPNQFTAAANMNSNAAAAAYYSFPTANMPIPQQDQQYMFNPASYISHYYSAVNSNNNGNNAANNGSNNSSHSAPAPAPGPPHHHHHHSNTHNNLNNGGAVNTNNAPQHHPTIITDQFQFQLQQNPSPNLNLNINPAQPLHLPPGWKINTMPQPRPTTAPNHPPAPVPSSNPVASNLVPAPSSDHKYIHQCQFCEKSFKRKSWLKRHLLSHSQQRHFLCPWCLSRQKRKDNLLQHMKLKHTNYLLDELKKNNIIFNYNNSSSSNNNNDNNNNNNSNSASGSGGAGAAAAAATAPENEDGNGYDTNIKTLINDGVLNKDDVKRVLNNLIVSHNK
Protocol: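 Universal 'all 10-mer' protein binding microarrays (Agilent AMADID 015681) probed with GST-tagged S. cerevisiae TFs (full-length or DBD) made by in vitro transcription/translation (PURExpress), about 100-200 nM. Bound TF was detected with fluorescent anti-GST. Each ungapped 8-mer (which stands for itself and its reverse complement) is scored by the PBM enrichment score (E-score), a modified Wilcoxon-Mann-Whitney statistic from -0.5 to +0.5, computed with the Universal PBM Analysis Suite. Scale: above 0.35 generally sequence-specific binding.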

Sequence | PBM E-score
ATTGGACC | -0.249
ATGGAATC | 0.00297
ACGTGCGA | 0.0988
CTCACCAA | -0.0942
ATCAAGAG | -0.11
ATTTGTCC | -0.0253
CAGCACCC | -0.27
GCTGGCAC | -0.0558
GTTCGCGA | 0.0261
ACTAAGAC | 0.0358
ACCGAGAC | 0.0166
AGTTATAC | 0.0649
CTGTCCCA | -0.151
CTCGTCAA | -0.084
GAGCCGCC | -0.373
GGTCAACC | -0.242
CCTCAGCC | -0.248
AGATTACA | 0.354
GCTAAACC | -0.146
AGCTTTAA | 0.058
GAATCGTA | -0.0105
GAGAGCAA | -0.137
GAGGTGAA | -0.101
CCAAAGAG | -0.0937
TCGTATAA | 0.0312

Sequence | PBM E-score
AAATAACC | -0.0353
AATTTTGG | -0.0957
ATACGCCA | 0.0272
CACGCCCA | 0.0185
CGGCGGGA | -0.304
AAGGAATA | 0.0281
AGAGGAGG | -0.282
CAACCGTG | 0.0805
CCCACATC | -0.242
ACGAGTAC | 0.205
GCATGTCA | 0.26
CCCTCCGG | -0.28
GGCCGAAC | -0.239
GCTTCAAC | -0.0432
CGTCGAAA | 0.0523
GGAGGGTA | -0.199
CCCTACAA | 0.112
ACCACCTC | -0.128
TGGCCAAA | -0.0912
CAGTTTCC | 0.125
GATTCGCC | -0.232
GATCGTAC | -0.18
AAGGTCCG | -0.0866
CGCCAGTA | -0.122
CTAGCTTC | -0.187

Sequence | PBM E-score
AACATTTG | 0.125
ACATCTCT | 0.0934
AAAACGCG | 0.219
GGCAAAAA | 0.259
AGTCGTCA | -0.00648
AGTAAGTC | -0.105
CCAATCTA | -0.168
AATCCCGC | -0.213
TACCAACA | 0.307
TCTGTGCA | 0.00117
TGGAGAAA | -0.234
GCCTGACA | 0.109
CTATCTAC | 0.166
CAACCTCG | 0.0428
CGAATACG | 0.0842
ACCGGAGC | -0.157
CGGCATCC | -0.0227
AAGCAGGT | 0.0496
ACGCCACA | -0.0319
ACCTCCCT | -0.118
CTTCCCTC | -0.228
CTGTAAAC | 0.295
TAGAGGGA | -0.0707
CGTATACC | -0.17
GTGTGATA | 0.189

Sequence | PBM E-score
AGGTTTAT | 0.0048
GTGCAACA | -0.0437
TACCCTAA | 0.141
AGTAGAAA | 0.0915
CAACTTAA | 0.137
CCTGTGCG | 0.185
CGATGTTA | 0.313
GAAGTAAC | 0.0663
CGGGGAAA | -0.0452
TGCCATAA | -0.112
CACTTACC | 0.212
GTCTGGAA | -0.273
GACGTTAC | 0.127
AAGGAGCG | -0.182
GCGACATA | -0.111
AGGGTACC | 0.0598
ACGGATCC | -0.172
GATATGCA | -0.0435
CAATGTGC | -0.00357
ATGATCGA | 0.0623
AAGATGGC | -0.247
AATTCACC | 0.07
GATATCCC | -0.12
AGGCACGG | 0.491
GCCTACCA | 0.174

Sequence | PBM E-score
CACACCTG | 0.0345
ATAATGAG | -0.22
CTCAGTTC | -0.0107
CATGTTGA | 0.401
GCCGTCTA | -0.266
AGATTGAT | -0.055
GCATAGTA | 0.14
AAGACGTG | 0.0703
TCTTCAAA | -0.0517
ATCCCTTA | -0.116
ATCTGTCG | -0.0996
CCATGCTA | -0.00877
GCTAACAA | 0.161
GGCGTGCA | -0.243
AAGTCTTA | 0.0422
GTAACAAC | 0.231
AACCAGTA | -0.153
CTAACAAA | 0.131
TACACACA | 0.385
GTGCATGA | 0.0603
ACCATAGA | -0.24
CTCATCGC | -0.107
CGTCGATC | 0.0501
AAACTGAT | -0.029
GAAAATTC | 0.00977

Sequence | PBM E-score
TCCTCGAA | 0.00615
ACCTCGGC | -0.229
ACAGTGCC | 0.169
GACTTAGC | -0.246
ACTTGTAG | 0.0499
AGACGCAT | -0.0845
CCATAAAG | -0.124
ATCTTGCC | 0.159
CACAATCA | 0.0206
GGATACAC | 0.027
ATCCGCAC | -0.184
CGTTCGCC | -0.0621
CAGGGGAA | -0.0748
CTAGTTTC | -0.178
GAACCGCC | -0.0754
TCCCCGGA | -0.199
CGTAAGGC | 0.256
CTGATAAC | 0.106
ATCTAAAA | -0.0198
ACCCGAAT | -0.0891
CGCACTCC | -0.223
AATTTTTC | 0.0527
TAATACTA | 0.21
ACTGACTG | -0.189
ACGGAGCC | -0.0964

Sequence | PBM E-score
AGGCGTAC | 0.213
CCTAATGC | -0.1
AACGGACA | -0.00364
GCTCGCTA | -0.109
AGTACCAT | -0.0991
AGTGAGAA | -0.0879
TGGAATAA | -0.0462
ATAGGAGG | -0.043
ACAACCGA | 0.0451
CGACCGTC | -0.214
ATTATGCC | 0.134
AGCTACCC | -0.136
CAGACATG | 0.106
ATTGAAGA | -0.0216
ATCCTCAC | -0.105
AAACCTCG | -0.21
ACAGTCCT | -0.155
AATTCACT | 0.111
AGCGCGCG | -0.0457
GAGATTAC | 0.0745
CGCACGGA | -0.207
TCGCACCA | -0.0591
